Measurements as given in the antibiotic and cytotoxicity screens of Wong et al. (2023).
This is one part of the list.

The compounds below were run on HSkMC (human skeletal muscle cells) (assay: cytotoxicity call (relative viability < 0.9)). Settings: 10 µM.
`C[C@H](CO)N1C[C@H](C)[C@H](CN(C)Cc2ccc(C(=O)Nc3ccccc3N)cc2)Oc2c(NC(=O)Nc3ccc4c(c3)OCO4)cccc2C1=O` was tested, and the cytotoxicity call was “inactive”. With `O=C(NO)c1cn(-c2ccc(C[C@H]3C(=O)O[C@@H](Cc4ccccc4)[C@H]4[C@@H]5C=CCCC=C5CN43)cc2)nn1` the cytotoxicity call was “inactive”. For `CC(C)NC(=O)Nc1ccc2c(c1)C(=O)N([C@H](C)CO)C[C@H](C)[C@@H](CN(C)S(C)(=O)=O)OCCCC[C@@H](C)O2`, the cytotoxicity call was “inactive”. `Cl.c1ccc(CC2=NCCN2)cc1` was tested, and the cytotoxicity call was “inactive”. With `COCC(=O)N1C[C@@H](C)[C@H](OC)CN(C)C(=O)c2ccc(NC(=O)c3ccc(F)cc3)cc2OC[C@H]1C` the cytotoxicity call was “inactive”. For `CCCCn1nc(C2CC2)nc1Cn1ncnn1`, the cytotoxicity call was “inactive”. In the case of `C[C@@H]1CN([C@H](C)CO)C(=O)c2c(c3ccccc3n2C)-c2ccccc2CO[C@H]1CN(C)C(=O)Nc1cccc(C(F)(F)F)c1`, the cytotoxicity call is reported as “inactive”. In the case of `C[C@H]1CN([C@@H](C)CO)C(=O)c2cc(Br)cnc2O[C@@H]1CN(C)S(=O)(=O)c1ccccc1`, the cytotoxicity call is reported as “inactive”. In the case of `Cc1noc(C)c1NC(=O)N(C)C[C@@H]1OCCCC[C@H](C)Oc2ccc(NC(=O)Nc3cccc4ccccc34)cc2C(=O)N([C@@H](C)CO)C[C@H]1C`, the cytotoxicity call is reported as “inactive”. For `Cc1ccccc1OCC(=O)NCC(=O)O`, the cytotoxicity call was “inactive”. With `C[C@@H]1CN([C@@H](C)CO)C(=O)c2c(c3ccccc3n2C)-c2ccccc2CO[C@H]1CN(C)C(=O)Nc1cccc(F)c1` the cytotoxicity call was “inactive”. `C[C@@H]1CN([C@H](C)CO)C(=O)c2cc(NC(=O)Nc3ccc(F)cc3)ccc2O[C@@H](C)CCCCO[C@H]1CN(C)S(=O)(=O)c1cccs1` was tested, and the cytotoxicity call was “inactive”. For `C[C@@H]1CN([C@@H](C)CO)C(=O)c2cccc(NC(=O)Nc3ccccc3)c2O[C@@H]1CN(C)C(=O)Nc1ccc(C(F)(F)F)cc1`, the cytotoxicity call was “inactive”. With `C[C@@H]1CN([C@H](C)CO)C(=O)Cc2cc(NC(=O)Nc3cccc4ccccc34)ccc2O[C@H]1CN(C)S(=O)(=O)c1ccc(F)cc1` the cytotoxicity call was “inactive”. For `Cl.NC(N)=NC(=O)Cc1c(Cl)cccc1Cl`, the cytotoxicity call was “inactive”. In the case of `C[C@H]1CN([C@@H](C)CO)C(=O)c2cccc(NC(=O)C3CCOCC3)c2O[C@H]1CN(C)S(=O)(=O)c1cn(C)cn1`, the cytotoxicity call is reported as “inactive”. In the case of `Cc1c(O[C@@H]2O[C@H](COC(=O)C[C@@](C)(O)CC(=O)O)C[C@H](O)[C@H]2O)occc1=O`, the cytotoxicity call is reported as “inactive”. `C[C@H]1CN([C@@H](C)CO)C(=O)c2cc(NC(=O)CCC(F)(F)F)ccc2O[C@@H]1CN(C)Cc1ccc(Cl)c(Cl)c1` was tested, and the cytotoxicity call was “inactive”. In the case of `COc1ccc(S(=O)(=O)N[C@@H]2C=C[C@@H](CC(=O)N3CCN(c4ccccc4)CC3)O[C@@H]2CO)cc1`, the cytotoxicity call is reported as “inactive”. For `C[C@@H]1CCCCO[C@@H](CN(C)C(=O)Nc2ccc(C(F)(F)F)cc2)[C@H](C)CN([C@H](C)CO)C(=O)c2cc(NS(=O)(=O)c3ccc(F)cc3)ccc2O1`, the cytotoxicity call was “inactive”. In the case of `Cn1nnc(NCc2ccccc2)n1`, the cytotoxicity call is reported as “inactive”. `O=C(CCCCCC(=O)N/N=C/[C@H](O)[C@@H](O)[C@H](O)CO)NO` was tested, and the cytotoxicity call was “inactive”. `CCc1cc(=O)oc2cc(O[C@@H](C)C(=O)N[C@@H](CCCNC(=N)N)C(=O)O)ccc12` was tested, and the cytotoxicity call was “inactive”. For `C[C@H](CO)N1C[C@H](C)[C@H](CN(C)S(=O)(=O)c2cccs2)Oc2c(NS(=O)(=O)c3cccs3)cccc2C1=O`, the cytotoxicity call was “inactive”. For `Cc1ccc(-c2cnc3c(c2)C(=O)N([C@@H](C)CO)C[C@@H](C)[C@H](CN(C)C(=O)Cc2cccnc2)O3)cc1`, the cytotoxicity call was “inactive”. With `CC1(C)S[C@@H]2[C@H](NC(=O)[C@H](NC(=O)N3CCNC3=O)c3ccccc3)C(=O)N2[C@H]1C(=O)O` the cytotoxicity call was “inactive”. In the case of `COc1ccccc1C#Cc1cnc2c(c1)C(=O)N([C@H](C)CO)C[C@H](C)[C@H](CN(C)C(=O)CC1CC1)O2`, the cytotoxicity call is reported as “inactive”. `C[C@H](CO)N1C[C@H](C)[C@H](CN(C)S(=O)(=O)c2cccs2)OCCCC[C@H](C)Oc2ccc(NC(=O)Cc3ccccc3)cc2C1=O` was tested, and the cytotoxicity call was “inactive”. In the case of `COc1ccc2c3c(n(c2c1)C)[C@H](CO)N(C[C@]13CN(C1)C(=O)Cc1ccccc1)C(=O)c1ccccn1`, the cytotoxicity call is reported as “inactive”. With `C[C@H](CO)N1C[C@H](C)[C@@H](CN(C)Cc2ccc(-c3ccccc3)cc2)Oc2c(NC(=O)CCCCCC(=O)Nc3ccccc3N)cccc2C1=O` the cytotoxicity call was “inactive”. With `C[C@H](CO)N1C[C@H](C)[C@@H](CN(C)C(=O)Nc2cccc3ccccc23)Oc2c(NS(=O)(=O)c3ccccc3)cccc2C1=O` the cytotoxicity call was “inactive”. In the case of `CCNC(=O)C[C@H]1C=C[C@H](NC(=O)C2CC2)[C@@H](CO)O1`, the cytotoxicity call is reported as “inactive”. `CNC[C@@H]1OCCCC[C@H](C)Oc2ccc(NS(=O)(=O)c3cn(C)cn3)cc2C(=O)N([C@H](C)CO)C[C@@H]1C` was tested, and the cytotoxicity call was “inactive”. For `C[C@@H]1CCCCO[C@H](CN(C)S(=O)(=O)c2cn(C)cn2)[C@H](C)CN([C@H](C)CO)C(=O)c2cc(NS(C)(=O)=O)ccc2O1`, the cytotoxicity call was “inactive”. `C[C@@H]1CCCCO[C@@H](CN(C)C(=O)Nc2ccccc2)[C@@H](C)CN([C@H](C)CO)C(=O)c2cc(NC(=O)c3ccccc3)ccc2O1` was tested, and the cytotoxicity call was “inactive”. For `C[C@@H]1CCCCO[C@H](CN(C)CC2CCCCC2)[C@@H](C)CN([C@H](C)CO)C(=O)c2cc(NC(=O)NC3CCCCC3)ccc2O1`, the cytotoxicity call was “inactive”. `Cc1ccc(C(=O)N(CCCN)[C@@H](c2nc3cc(Cl)ccc3c(=O)n2Cc2ccccc2)C(C)C)cc1` was tested, and the cytotoxicity call was “active”. For `C[C@@H]1CN([C@H](C)CO)C(=O)CCCn2cc(nn2)CO[C@@H]1CN(C)S(=O)(=O)c1cccc(C#N)c1`, the cytotoxicity call was “inactive”. In the case of `CN1CCN(C(=O)C[C@H]2C=C[C@H](NC(=O)Nc3ccccc3F)[C@H](CO)O2)CC1`, the cytotoxicity call is reported as “inactive”. `C[C@H](CO)N1C[C@H](C)[C@H](CN(C)Cc2ccc(Cl)c(Cl)c2)Oc2ccc(NC(=O)CCC(F)(F)F)cc2C1=O` was tested, and the cytotoxicity call was “inactive”.
